# Laboratory results published in paper PMC4336329 (PLoS ONE, 2015).
# Screen size: about 310,000 compounds; about 2,200 (0.71%) showed an effect of 50% or more. Effects have a minus sign here. The list shows a part of the results.
# Target: human ether-à-go-go-related gene (hERG) potassium channel (human, UniProt Q12809)
# Assay: primary screen, population patch clamp on CHO cells stably expressing hERG
# Sequence of human ether-à-go-go-related gene (hERG) potassium channel (Q12809 whole entry, looked up): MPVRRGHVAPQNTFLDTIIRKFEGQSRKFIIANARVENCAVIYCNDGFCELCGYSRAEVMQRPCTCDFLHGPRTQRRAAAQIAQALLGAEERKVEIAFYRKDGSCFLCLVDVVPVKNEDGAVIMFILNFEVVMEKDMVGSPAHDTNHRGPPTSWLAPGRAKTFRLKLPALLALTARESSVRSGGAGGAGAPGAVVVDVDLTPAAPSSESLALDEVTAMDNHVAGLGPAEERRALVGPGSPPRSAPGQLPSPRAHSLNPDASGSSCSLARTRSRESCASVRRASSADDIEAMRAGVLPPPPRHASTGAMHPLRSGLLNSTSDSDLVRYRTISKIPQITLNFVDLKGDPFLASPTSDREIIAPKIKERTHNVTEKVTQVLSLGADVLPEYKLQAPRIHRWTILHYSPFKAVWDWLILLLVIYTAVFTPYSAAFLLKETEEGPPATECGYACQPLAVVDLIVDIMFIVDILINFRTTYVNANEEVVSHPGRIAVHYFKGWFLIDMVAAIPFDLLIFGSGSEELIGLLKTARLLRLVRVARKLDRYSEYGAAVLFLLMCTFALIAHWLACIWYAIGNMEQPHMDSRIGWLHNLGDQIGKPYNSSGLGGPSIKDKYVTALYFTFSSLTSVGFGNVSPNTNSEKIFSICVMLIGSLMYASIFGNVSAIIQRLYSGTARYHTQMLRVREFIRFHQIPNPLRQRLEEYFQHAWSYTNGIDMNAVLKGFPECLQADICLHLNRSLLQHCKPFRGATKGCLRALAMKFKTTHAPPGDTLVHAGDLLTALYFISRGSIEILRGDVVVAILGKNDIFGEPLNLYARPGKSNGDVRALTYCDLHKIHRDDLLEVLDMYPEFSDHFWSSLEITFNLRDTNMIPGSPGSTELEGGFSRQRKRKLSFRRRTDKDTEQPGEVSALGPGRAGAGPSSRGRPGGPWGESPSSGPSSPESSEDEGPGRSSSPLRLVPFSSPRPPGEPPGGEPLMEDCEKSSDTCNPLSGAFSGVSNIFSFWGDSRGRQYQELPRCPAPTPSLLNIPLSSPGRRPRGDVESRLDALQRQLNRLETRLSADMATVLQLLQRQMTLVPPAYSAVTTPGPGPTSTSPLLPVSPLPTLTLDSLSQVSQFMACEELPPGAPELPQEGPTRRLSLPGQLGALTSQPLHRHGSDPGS
row,SMILES,"hERG current change (%, negative = inhibition) at 1uM [%]"
1,O=C(NCc1ccc(Cl)cc1)c1ccc(Cn2cc(C(F)(F)F)ccc2=O)cc1,13.1
2,COc1ccc(O)c(/C=N/N=C2/C(=O)Nc3ccccc32)c1,0.714
3,CC1(C)CC(=O)C2=C(C1)OC1=C(C(=O)CC(C)(C)C1)C2c1cc([N+](=O)[O-])cc([N+](=O)[O-])c1O,13.6
4,COc1ccc(-c2cc(-c3cc(C)ccc3O)[nH]n2)cc1,13.3
5,CCOc1ccccc1/C=N/Nc1ccccc1[N+](=O)[O-],1.57
6,CC(C)OP(=O)(Oc1ccc(C(O)C(Cl)(Cl)Cl)cc1)OC(C)C (stereo not shown),12.7
7,O=[N+]([O-])C(=c1ccc2c(c1)N1C3=C(CCCC3)CC3CCCCC31N=2)[N+](=O)[O-] (stereo not shown),5.52
8,COc1ccc(CNC(=O)c2cnn3c(C(F)F)cc(C)nc23)cc1,16.4
9,Cc1ccc2cc3c(NC(=O)c4ccco4)nn(C)c3nc2c1,12.1
10,CCOc1ccccc1C(=O)N(Cc1ccccc1)Cc1cc2cc3c(cc2[nH]c1=O)OCCO3,7.8
11,CCCS(=O)(=O)c1cnc(C2COc3ccccc3O2)nc1N (stereo not shown),11.6
12,COc1cc(OC)cc(C(=O)Nn2c(C)nc3ccccc3c2=O)c1,13.6
13,CCCCCn1c(SCc2cccc(C)c2)nc2c1c(=O)[nH]c(=O)n2C,15.7
14,COc1cc(NC(=O)COc2ccccc2[N+](=O)[O-])ccc1NC(=O)c1ccco1,5.2
15,CCc1c(C)sc(NC(=O)c2cc(-c3ccc(OC)c(OC)c3)on2)c1C#N,11.7
16,O=C(NCC1CCCO1)C1CCN(C2CCN(Cc3ccco3)CC2)CC1 (stereo not shown),-2.26
17,O=C(N[C@H]1CCC(=O)N([C@H](CSc2ccccc2)Cc2ccccc2)CC1)OCc1ccccc1,0.399
18,COc1cccc(C(=O)COc2cccc(NC(=O)c3cccc([N+](=O)[O-])c3)c2)c1,2.87
19,CCCCn1c(N)c(N(CC(C)C)C(=O)C2CC(=O)N(Cc3ccco3)C2)c(=O)[nH]c1=O (stereo not shown),-8.62
20,O=C(O)c1cn(Cc2ccccc2)c2ccccc2c1=O,-43.6
21,CCC(C)N1CCC(Oc2ccc(C(=O)NCc3ccccn3)cc2)CC1 (stereo not shown),12.2
22,Cc1nn(C)c(C)c1/C=N/N=C1\CCC2C3CCc4cc(O)ccc4C3CCC12C (stereo not shown),13

row,SMILES,"hERG current change (%, negative = inhibition) at 1uM [%]"
1,Cn1c(SCc2ccccn2)nnc1-c1ccccc1,11.5
2,O=C(Nc1ccc(Cl)cc1F)C1CCN(S(=O)(=O)c2cccc3nonc23)CC1,14.4
3,CC1=C(C(=O)OCc2ccccc2)C(c2ccccc2-c2ccccc2)NC(=O)N1CCCCCC(=O)O (stereo not shown),1.7
4,Cc1ccc(C(C)C)cc1C(=O)CC1(O)C(=O)N(C)c2ccccc21 (stereo not shown),14.3
5,COc1ccc(N2CCN(C(=S)Nc3cccc(C)c3C)CC2)cc1,9.51
6,O=C(CC1C(=O)NCCN1Cc1ccccc1C(F)(F)F)NC1CCCCC1 (stereo not shown),8.9
7,CCOc1ccc(CCNC(=O)COC(=O)COc2ccc(C(C)=O)cc2)cc1OCC,6.42
8,COc1ccc(C(=O)c2ccc(OC)c3cccc(O)c23)cc1OC,6.75
9,O=C(CN1C(=O)CC(c2ccccc2)S(=O)(=O)c2ccccc21)N1CCOCC1 (stereo not shown),6.88
10,COc1cccc(NC(=O)c2ccnc(N3CCC(C(=O)NCc4ccccc4OC)CC3)c2)c1,6.15
11,COc1ccc2cc3cc(C(=O)N4CCN(c5ccccn5)CC4)oc3nc2c1,1.46
12,COc1ccccc1-n1c(=O)c2c3c(sc2n2c(SC)nnc12)CCC3,6.38
13,CCS(=O)(=O)N1CCN(Cc2ccc([N+](=O)[O-])cc2)CC1.O=C(O)C(=O)O,9.38
14,C/C=C/c1ccc(OCC(O)CN2CCCCC2CC)c(OC)c1 (stereo not shown),0.289
15,CC1(c2nnc(-c3ccccc3)o2)CC(c2ccccc2)=NO1 (stereo not shown),7.41
16,CC1(C)CC(=O)C=C(c2ccc(-c3ccccc3)cc2)C1,11.3
17,CCn1c(C)nc2cc(C(=O)NNC(=S)Nc3ccccc3Cl)ccc21,13.5
18,OC1(c2ccccc2F)CCN(Cc2nnnn2Cc2ccc(F)cc2)CC1,8.42
19,CCC(C)(C)n1nnnc1C(c1cccnc1)N1CCN(c2cccc(C(F)(F)F)c2)CC1 (stereo not shown),1.79
20,CC1CCC(NC(=O)CN(C)S(=O)(=O)c2cccc3cccnc23)CC1 (stereo not shown),9.27
21,Cc1cccc(C)c1NC(=O)COC(=O)c1cccc2c1C(=O)c1ccccc1C2=O,5.96
22,Cc1[nH]c(=S)c(C#N)c(-c2ccco2)c1C(=O)N(C)C,13.7

row,SMILES,"hERG current change (%, negative = inhibition) at 1uM [%]"
1,CCN(CC)C(=O)Cn1cc(SCC(=O)NC2CCCC2)c2ccccc21,-5.69
2,O=C(NC1CCCCCC1)c1ccc[nH]c1=S,12.6
3,C=CCn1c(COc2ccccc2)nnc1SCc1ccc(C#N)cc1,-25.5
4,CCC1(c2ccccc2)NC(=O)N(CC(=O)NCc2ccc(OC)cc2)C1=O (stereo not shown),9.33
5,COc1ccc(NC(=O)NCCN2CCN(c3cccc(Cl)c3)CC2)cc1,-4.03
6,CC(=O)CSc1nc(N(C)C)nc(N(C)C)n1,2.69
7,Cc1ccc2cc(C#N)c(NCc3ccccc3)nc2c1,9.66
8,CC(=O)c1c(C(C)=O)c(C)n(NC(=O)c2ccncc2)c1C,9.11
9,c1cc(CNCCc2ccc3c(c2)OCO3)ccn1,15.2
10,CC(C)NCCCOc1ccc(Cl)cc1Br.O=C(O)C(=O)O,-16.4
11,Cc1onc(-c2ccccc2)c1C(=O)NCc1ccc(Cl)cc1,5.61
12,C/C(=N\NC(=O)C(O)c1ccccc1)c1ccc(Br)s1 (stereo not shown),12.1
13,Cn1c(O)c(N=Nc2ccccc2)c2ccccc21,17.8
14,O=C(NCc1ccccc1)C1=C[C@H](C2CCCCC2)C[C@H](OCCCCO)O1,15.5
15,CC(=O)N1C(=O)/C(=C2\SC(=S)N(c3c(C)n(C)n(-c4ccccc4)c3=O)C2=O)c2ccccc21,5.86
16,COc1ccc(NCCC(O)c2ccc(Cl)cc2)cc1 (stereo not shown),9.22
17,O=S1(=O)C=C(SCc2ccc(F)cc2)Nc2ccccc21,-0.0092
18,COc1ccccc1N1CCN(C(=O)CCc2nnc3ccc(N4CCOCC4)nn23)CC1,7.42
19,O=C(NC1CCCCC1)C(c1cccnc1)N(CCc1ccccc1)C(=O)Cc1cccs1 (stereo not shown),-9.27
20,CCOC(=O)N(CC)c1ccc(C(O)(C(=O)OCC)C(F)(F)F)cc1 (stereo not shown),12.8
21,COc1cc(/C=C/C(=O)O)ccc1OS(=O)(=O)c1cc(C)ccc1C,10.5
22,CN(Cc1ccccc1)C(=O)C1CCCN(Cc2ccc(Cl)cc2)C1.O=C(O)C(=O)O (stereo not shown),-44.1

row,SMILES,"hERG current change (%, negative = inhibition) at 1uM [%]"
1,COc1cc(NC(=O)c2ccccc2F)c(OC)cc1NC(=O)CN1CCCCC1.Cl,1.58
2,COC(=O)c1ccc(NC(=O)COc2ccc3c(c2)OCO3)cc1,3.83
3,C=CCn1c(=O)c(C(=O)Nc2ccccc2C(=O)OCC)c(O)c2ccccc21,4.69
4,Nc1c(S(=O)(=O)c2ccccc2)c2nc3ccccc3nc2n1/N=C/c1ccco1,16.2
5,Cc1ccccc1OCC(O)Cn1c(Br)nc2c1c(=O)n(C)c(=O)n2C (stereo not shown),15.3
6,COc1cc(/C=C/C(=O)O)cc(S(=O)(=O)Nc2ccc3c(c2)OCO3)c1OC,5.49
7,COc1ccc(NC(=O)c2nnn(CC(=O)Nc3ccc4c(c3)OCO4)c2N)c(OC)c1,14
8,CCOC(=O)c1cccc(NC(=O)CSc2nnc(-c3ccoc3C)n2CC)c1,7.74
9,COc1ccc(/C=C(\CC(=O)O)c2nc3ccccc3s2)cc1O,11.5
10,Cc1cc(=O)oc2cc(OCC(=O)N/N=C/c3ccccc3O)ccc12,18.3
11,CC(=O)c1ccc(N2CCN(C(=O)c3ccc(-c4ccccc4)cc3)CC2)cc1,14.3
12,CN1CCC(N(C)CC(=O)Nc2cccc(Oc3ccccc3)c2)CC1.O=C(O)C(=O)O,19.8
13,Cc1[nH]c2ccc(-c3nnc(SCC(=O)c4ccccc4F)o3)cc2c1C,5.65
14,Cc1ccc(-n2c(CC#N)n[nH]c2=S)c(C)c1,10.4
15,COCCCNC(=O)c1ccc2c(c1)ncn2-c1ccc(C)cc1C,15
16,CCN(CC)C(=O)C1CCCN(c2ccc([N+](=O)[O-])cc2[N+](=O)[O-])C1 (stereo not shown),-5.42
17,O=C(Oc1cccc2cccnc12)c1ccc2c(c1)OCCO2,5.34
18,COc1ccc(N(CCN2C(=O)c3ccccc3C2=O)C(=O)c2cccc([N+](=O)[O-])c2)cc1,0.842
19,O=C(NCc1ccccc1)c1cc(-c2cccs2)on1,11.4
